Reference: PubChem BioAssay AID686978 (National Center for Advancing Translational Sciences (NCATS), 2013)
The whole screen tested about 420,000 compounds, of which about 64,000 (15%) were called active. Inconclusive means that the source gave no clear call. Such entries were picked first, then a sample of the others. Calls come from the whole dose curve; as a rule, active = well fitted inhibition curve with a large enough effect; inconclusive = small, poorly fitted or top-dose-only effect; inactive = flat fitted curve, though single readings scatter. Potencies of inconclusive entries are left out as doubtful fits.
% is set by controls: 0 for no effect and ±100 for the full control effect; potency is the fitted concentration of half-maximal effect; tags give direction and shape of the fitted curve.

Experiment: qHTS for Inhibitors of human tyrosyl-DNA phosphodiesterase 1 (TDP1): qHTS in cells in absence of CPT; note: nearly all actives have a fitted effect of over 55% in size
Conditions: DT40 Tdp1-/- hTDP1 cells, no CPT, ATP luminescence, 48 h; activity change, negative = growth inhibition: at 46.2 µM (top of the series) unless noted
Method in brief: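 Chicken DT40 Tdp1-/- cells complemented with human TDP1, screened without camptothecin (DMSO vehicle only), 400 cells/well. Compounds pin-transferred, cells incubated at 37 °C for at least 48 hr. Growth read as ATP-dependent luminescence (CellTiter-Glo, 30 min at RT).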
With COc1cccc(C(NC(C)=O)c2nc(-c3ccncc3)cs2)c1 (stereo not drawn) the Potency was inconclusive [inhibitor, partial curve]. With Cc1cc(C)cc(N(CC(=O)NCC2CCCO2)C(=O)CCC(=O)Nc2nccs2)c1 (stereo not drawn) the activity change, negative = growth inhibition was inconclusive: -21.5% [inhibitor]. With COc1ccc(Cl)cc1CSc1ncn[nH]1 the Potency was inconclusive [inhibitor, single point]. For O=C(Nc1nc2cc3c(cc2s1)OCO3)C1CC1, the Potency was active: 3.66 µM. In the case of CCOC(=O)C1CCN(S(=O)(=O)Cc2ccccc2)C1=O (stereo not drawn), the activity change, negative = growth inhibition is reported as inconclusive: -15.9% [inhibitor]. In the case of Nn1c(Cc2cccc3ccccc23)nnc1SCc1c(F)cccc1Cl, the “activity change, negative = growth inhibition” value is reported as inactive: -29.5%. For CCCn1c2c(c(O)c(C(=O)NC)c1=O)CCCC2, the Potency was inconclusive [inhibitor, partial curve]. With CS(=O)(=O)N1CCC(C(=O)NCc2ccc(Cl)cc2Cl)CC1 the “activity change, negative = growth inhibition” value was inactive: 2.17%. For CC(Oc1ccc(-c2ccccc2)cc1)C(=O)N1CCOCC1 (stereo not drawn), the activity change, negative = growth inhibition was inconclusive: -30.3% [inhibitor]. For Cc1ccc(Cl)cc1N1CCN(C(=O)c2noc(C)c2[N+](=O)[O-])CC1, the Potency was inconclusive [inhibitor, single point]. With CCCn1c(N)c(N(CCOC)C(=O)c2ccccc2F)c(=O)[nH]c1=O the “activity change, negative = growth inhibition” value was inactive: -3.68%. With COc1ccc2[nH]cc(CCNc3ncnc4ccc(-c5cccc(C#N)c5)cc34)c2c1 the Potency was inconclusive [inhibitor, single point]. With CN1CCN(C(=S)SCC(=O)N2CCCc3ccccc32)CC1 the “activity change, negative = growth inhibition” value was inactive: -27.9%. For CC(=O)Nc1ccc(NC(=O)c2ccc(OCc3c(C)noc3C)cc2)cc1, the “activity change, negative = growth inhibition” value was inactive: -8.92%. In the case of Cc1ccc(NC(=O)c2ccc(CN3CC(=O)N4CCCCC4C3=O)cc2)cc1 (stereo not drawn), the Potency is reported as inconclusive [inhibitor, single point]. In the case of N#Cc1cc(N)ccc1Sc1ccc(Cl)cc1, the Potency is reported as inconclusive [inhibitor, partial curve, poor fit]. For Cc1ccc(Cl)cc1N1CCN(C(=O)C2CCCN(S(=O)(=O)c3cnc[nH]3)C2)CC1 (stereo not drawn), the Potency was active: 23.1 µM. In the case of COc1ccccc1C(=O)NNC(=O)C(=O)Nc1cccc(Cl)c1C, the Potency is reported as inconclusive [inhibitor, single point]. In the case of CC1Cc2ccccc2N1C(=O)CCS(=O)(=O)c1ccc2c(c1)NC(=O)CS2 (stereo not drawn), the Potency is reported as inconclusive [inhibitor, single point]. In the case of C=CCC1(CC=C)CCCN1C(=O)Cn1nnnc1CN(C)C(C)C, the “activity change, negative = growth inhibition” value is reported as inactive: 20.1%. With Cc1ccc(NC(=O)c2cc(S(=O)(=O)N3CCOCC3)ccc2Cl)cc1S(=O)(=O)N1CCOCC1 the Potency was inconclusive [inhibitor, single point]. For CCOC(=O)c1sc(=NC(=O)CCS(=O)(=O)c2ccccc2)n(C)c1C, the “activity change, negative = growth inhibition” value was inactive: 7.17%. With Cc1ccc(S(=O)(=O)c2cc3c(=O)n4ccccc4nc3n(C3CCCC3)c2=N)cc1 the Potency was inconclusive [inhibitor, single point]. With Cc1ccccc1OCCSc1nnc(C)n1-c1ccccc1 the Potency was inconclusive [inhibitor, single point]. In the case of CCOC(=O)C1(C)CCCN1C(=O)c1ccc(C(F)(F)F)nc1C (stereo not drawn), the “activity change, negative = growth inhibition” value is reported as inactive: -0.269%. For N#Cc1ccc(C(=O)NNC(=O)c2cccc(S(=O)(=O)N3CCOCC3)c2)cc1, the “activity change, negative = growth inhibition” value was inactive: -2.68%. With CSc1ccccc1NC(=O)CN(c1ccccc1Br)S(C)(=O)=O the Potency was inconclusive [inhibitor, partial curve, poor fit]. With Cc1cc(C)cc(-n2c3ccc(NC(=S)NC4CCCCC4)cc3c(=O)n2C)c1 the Potency was inconclusive [inhibitor, single point]. For CCCC(=O)NC(c1ccc(OCC)cc1)c1ccc(OC)c(OC)c1 (stereo not drawn), the “activity change, negative = growth inhibition” value was inactive: -5.41%. With Cn1c(SCC(=O)N2CCCc3ccccc32)ncc(C(=O)Nc2ccccc2)c1=O the “activity change, negative = growth inhibition” value was inactive: -0.311%. In the case of CCc1nn2c(=O)cc(COC(=O)c3ccc(NC(=O)COc4ccc(C)cc4)cc3)nc2s1, the Potency is reported as active: 16.4 µM. For COc1cc(C(=O)NC(=S)Nc2ccc3c(c2)OCO3)cc(OC)c1OC, the “activity change, negative = growth inhibition” value was inactive: -8.11%. With CCCCN1CC(COCc2ccccc2)Oc2cccc(Oc3ccc(OC)cc3)c2S1(=O)=O (stereo not drawn) the Potency was active: 18.4 µM. For CCN(CC)S(=O)(=O)c1cccc(-c2nnc(SCc3nc4ccccc4s3)o2)c1, the Potency was active: 20.6 µM. With Cc1ccc(-c2nnc(N3CCN(C(=O)Cn4c(=O)n(C)c5ccccc54)CC3)c3ccccc23)cc1 the Potency was active: 16.4 µM. For COC(=O)[C@H](CCSC)NC(=O)c1cc2c(cn1)[nH]c1ccccc12, the Potency was active: 7.31 µM. In the case of CCOC(=O)C(C)Sc1nc(-c2ccccc2Cl)cc(-c2ccccc2)c1C#N (stereo not drawn), the Potency is reported as inconclusive [inhibitor, single point]. In the case of CC(C)CN(CC(C)C)C(=O)CN1C(=O)NC2(CCc3ccccc3C2)C1=O (stereo not drawn), the “activity change, negative = growth inhibition” value is reported as inactive: -11%. With Cc1cc(C)cc(NC(=O)CSc2nc(=O)n(Cc3ccccn3)c3c2CCC3)c1 the Potency was inconclusive [inhibitor, single point]. For COc1ccc(C)cc1Nc1n[n+](C)c(-c2ccc(O)cc2O)s1, the “activity change, negative = growth inhibition” value was inactive: -23.4%. For COc1cc(-c2nnc(SCC(=O)Nc3ccc(C(=O)O)cc3)o2)cc(OC)c1OC, the “activity change, negative = growth inhibition” value was inactive: 5.31%. With CCCCC(CC)C(=O)Nc1ccc(C#N)cc1 (stereo not drawn) the Potency was inconclusive [inhibitor, partial curve]. In the case of C/C=C(\C)C(=O)N1CC2(CC(c3cccc(NC(=O)COc4ccc(Cl)cc4)c3)=NO2)C[C@@H]1C(N)=O (stereo partly drawn), the Potency is reported as inconclusive [inhibitor, single point]. With Cc1ccc(C(=O)COC(=O)C(Cc2c[nH]c3ccccc23)NC(=O)c2ccc(C(C)(C)C)cc2)cc1 (stereo not drawn) the Potency was active: 23.1 µM. For CC(=O)c1cccc(Nc2cc(C)nc3ccc(C)cc23)c1, the Potency was inconclusive [inhibitor, single point]. In the case of Cc1ccc(-c2nnc(NCc3nc4ccccc4[nH]3)c3ccccc23)cc1S(=O)(=O)N1CCCCC1, the Potency is reported as active: 16.4 µM. In the case of CSc1ccc(Cn2nnc(C(=O)Nc3ccc(C)cc3Cl)c2N)cc1, the activity change, negative = growth inhibition is reported as inconclusive: -34.6% [inhibitor]. With CC(C)CC(=O)N1CCN(Cc2ccccc2[N+](=O)[O-])CC1 the “activity change, negative = growth inhibition” value was inactive: -11.5%. In the case of COc1ccc(-c2nc3ccccc3n2OCC(=O)O)cc1, the “activity change, negative = growth inhibition” value is reported as inactive: -24.6%. In the case of COCCn1c(C)cc(C(=O)COc2nc3ccccc3nc2C)c1C, the Potency is reported as active: 14.6 µM. With CC1CCC(NC(=O)C(Cc2ccccc2)n2cccc2)CC1 (stereo not drawn) the Potency was inconclusive [inhibitor, single point]. With Cc1ccc2[nH]c(=O)c(CN(C(=O)c3cccc(Cl)c3)C(C)(C)C)cc2c1 the Potency was inconclusive [inhibitor, single point]. For CCCCc1ccc(NC(=S)NCCCN2CCOCC2)cc1, the “activity change, negative = growth inhibition” value was inactive: -8.91%. In the case of COCCNC(=O)COC(=O)c1nsc(Cl)c1Cl, the Potency is reported as inconclusive [inhibitor, single point]. In the case of CCC(C)(C)c1ccc(OCCN2C(=O)NC(C)(C)C2=O)cc1, the Potency is reported as inconclusive [inhibitor, partial curve]. In the case of O=C1COc2ccc(C(=O)COC(=O)CCOc3ccccc3)cc2N1, the “activity change, negative = growth inhibition” value is reported as inactive: -3.08%. In the case of CN(C)S(=O)(=O)N1CCC(Oc2cccc(C(=O)N3CCCCCCC3)c2)CC1, the Potency is reported as inconclusive [inhibitor, single point]. For O=C(COC(=O)c1cc(Cl)ccc1Cl)NCCN1C(=O)CSC1=O, the activity change, negative = growth inhibition was inconclusive: -36% [inhibitor]. In the case of O=C(Nc1cccc(C(F)(F)F)c1)C1Cc2c(-c3ccccc3Oc3ccccc3)ccnc2O1 (stereo not drawn), the Potency is reported as active: 16.4 µM. In the case of Cc1cccc(Oc2nc3c(c(=O)n(C)c(=O)n3C)n2Cc2ccccc2)c1C, the Potency is reported as inconclusive [inhibitor, partial curve, poor fit]. For COC(=O)c1ccc(-n2c(C)cc(C(=O)CSc3cccc[n+]3[O-])c2C)cc1, the Potency was inconclusive [inhibitor, single point]. In the case of CN(CC(=O)N1CCc2ccccc21)S(=O)(=O)c1cccc2cccnc12, the Potency is reported as inconclusive [inhibitor, single point]. With CCCSc1ncc(Cl)c(C(=O)Nc2sc3c(c2C(=O)NCCCOC)CCCC3)n1 the Potency was active: 11.2 µM. For COc1ccc(-n2cc(-c3ccccc3)c3c(NC4CCCC4)ncnc32)cc1, the Potency was active: 18.4 µM. For COc1ccc(CNc2ccccc2SC)cc1OC, the Potency was inconclusive [inhibitor, single point]. For CCOC(=O)c1c(NC(=O)CSc2nnc(N)s2)sc(C)c1-c1ccc(C)cc1, the Potency was inconclusive [inhibitor, single point]. With COc1ccc(/C=C(/NC(=O)c2ccccc2)C(=O)N2CCOCC2)cc1OC the “activity change, negative = growth inhibition” value was inactive: 5.39%. With Cc1cccc(C)c1OCc1cc(=O)n2c3c(sc2n1)CCCC3 the Potency was inconclusive [inhibitor, single point]. For CC(C)CC(=O)Nc1cc(-c2ccccc2F)nn1-c1ccccc1, the Potency was active: 11.6 µM. For O=C(COC(=O)c1ccc(O)cc1)Nc1cc(S(=O)(=O)N2CCCCCC2)ccc1Cl, the Potency was inconclusive [inhibitor, single point]. With COc1cc(/C=N/Nc2ccccn2)cc(OC)c1O the Potency was inconclusive [inhibitor, partial curve, poor fit]. With O=C(NC(Cc1ccccc1)c1ccc2c(c1)OCCCO2)c1ccc(F)cc1 (stereo not drawn) the Potency was inconclusive [inhibitor, single point]. With O=C(NCc1ccccn1)C1Nc2ccc(OC(F)(F)F)cc2C2C=CCC12 (stereo not drawn) the Potency was inconclusive [inhibitor, single point].
